# Test results reported in the supplement of paper PMC8728848.
# This is one part of the list.
# What was measured:
# Assay in all cases: glycan array binding signal (z-score within array); higher = stronger binding
# Settings in all cases: glycan notation: IUPAC condensed, linker removed
# [1] = molecular target: Fuc(a1-3)[Gal(b1-4)]GlcNAc(b1-6)[Gal(b1-3)GlcNAc(b1-3)]Gal(b1-4)Glc
# Outline: (§1)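 The binding signal is a Z-score computed within each array and averaged over linkers. Arrays of the same protein sequence at different concentrations or buffers were also averaged together. Data originate from 3228 arrays in the Consortium for Functional Glycomics database, kept only where the protein sequence was available.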
# [2] = molecular target: Fuc(a1-3)[Gal(b1-4)]GlcNAc6S
# Outline: as §1
# [3] = molecular target: Fuc(a1-3)[Gal3S(b1-4)]Glc
# Outline: as §1
# [4] = molecular target: Fuc(a1-3)[Gal3S(b1-4)]GlcNAc
# Outline: as §1
# [5] = molecular target: Fuc(a1-3)[Gal3S(b1-4)]GlcNAc6S
# Outline: as §1
# [6] = molecular target: Fuc(a1-3)[GalNAc(b1-4)]GlcNAc
# Outline: as §1
# [7] = molecular target: Fuc(a1-3)[GalNAc(b1-4)]GlcNAc6S
# Outline: as §1
# Fuc(a1-4)GlcNAc = molecular target: Fuc(a1-4)GlcNAc
# Outline: as §1
# Fuc(b1-3)GlcNAc = molecular target: Fuc(b1-3)GlcNAc
# Outline: as §1
# Gal(a1-2)Gal = molecular target: Gal(a1-2)Gal
# Outline: as §1
# Gal(a1-3)Gal = molecular target: Gal(a1-3)Gal
# Outline: as §1
# Gal(a1-3)Gal(b1-3)GlcNAc = molecular target: Gal(a1-3)Gal(b1-3)GlcNAc
# Outline: as §1
# [8] = molecular target: Gal(a1-3)Gal(b1-3)GlcNAc(b1-2)Man
# Outline: as §1
# [9] = molecular target: Gal(a1-3)Gal(b1-3)GlcNAc(b1-2)Man(a1-3)[Gal(a1-3)Gal(b1-3)GlcNAc(b1-2)Man(a1-6)]Man(b1-4)GlcNAc(b1-4)GlcNAc
# Outline: as §1
# [10] = molecular target: Gal(a1-3)Gal(b1-3)GlcNAc(b1-3)GalNAc
# Outline: as §1
# [11] = molecular target: Gal(a1-3)Gal(b1-3)GlcNAc(b1-6)GalNAc
# Outline: as §1
# [12] = molecular target: Gal(a1-3)Gal(b1-3)[Fuc(a1-4)]GlcNAc(b1-2)Man(a1-3)[Gal(a1-3)Gal(b1-3)[Fuc(a1-4)]GlcNAc(b1-2)Man(a1-6)]Man(b1-4)GlcNAc(b1-4)GlcNAc
# Outline: as §1
# Gal(a1-3)Gal(b1-4)Glc = molecular target: Gal(a1-3)Gal(b1-4)Glc
# Outline: as §1
# Gal(a1-3)Gal(b1-4)GlcNAc = molecular target: Gal(a1-3)Gal(b1-4)GlcNAc
# Outline: as §1
# [13] = molecular target: Gal(a1-3)Gal(b1-4)GlcNAc(b1-2)Man
# Outline: as §1
# [14] = molecular target: Gal(a1-3)Gal(b1-4)GlcNAc(b1-2)Man(a1-3)[Gal(a1-3)Gal(b1-4)GlcNAc(b1-2)Man(a1-6)]Man(b1-4)GlcNAc(b1-4)GlcNAc
# Outline: as §1
# [15] = molecular target: Gal(a1-3)Gal(b1-4)GlcNAc(b1-3)GalNAc
# Outline: as §1
# [16] = molecular target: Gal(a1-3)Gal(b1-4)GlcNAc(b1-6)GalNAc
# Outline: as §1
# [17] = molecular target: Gal(a1-3)Gal(b1-4)[Fuc(a1-3)]GlcNAc
# Outline: as §1
# [18] = molecular target: Gal(a1-3)Gal(b1-4)[Fuc(a1-3)]GlcNAc(b1-2)Man(a1-3)[Gal(a1-3)Gal(b1-4)[Fuc(a1-3)]GlcNAc(b1-2)Man(a1-6)]Man(b1-4)GlcNAc(b1-4)GlcNAc
# Outline: as §1
# Gal(a1-3)GalNAc = molecular target: Gal(a1-3)GalNAc
# Outline: as §1
# [19] = molecular target: Gal(a1-3)[Gal(a1-4)]Gal(b1-4)GlcNAc
# Outline: as §1
# [20] = molecular target: Gal(a1-4)Gal(b1-3)GlcNAc(b1-2)Man(a1-3)[Gal(a1-4)Gal(b1-3)GlcNAc(b1-2)Man(a1-6)]Man(b1-4)GlcNAc(b1-4)GlcNAc
# Outline: as §1
# Gal(a1-4)Gal(b1-4)Glc = molecular target: Gal(a1-4)Gal(b1-4)Glc
# Outline: as §1
# Gal(a1-4)Gal(b1-4)GlcNAc = molecular target: Gal(a1-4)Gal(b1-4)GlcNAc
# Outline: as §1
# [21] = molecular target: Gal(a1-4)Gal(b1-4)GlcNAc(b1-2)Man(a1-3)[Gal(a1-4)Gal(b1-4)GlcNAc(b1-2)Man(a1-6)]Man(b1-4)GlcNAc(b1-4)GlcNAc
# Outline: as §1
# [22] = molecular target: Gal(a1-4)Gal(b1-4)GlcNAc(b1-3)Gal(b1-4)Glc
# Outline: as §1
# Gal(a1-4)GlcNAc = molecular target: Gal(a1-4)GlcNAc
# Outline: as §1
# Gal(a1-6)Glc = molecular target: Gal(a1-6)Glc
# Outline: as §1
# Gal(b1-2)Gal = molecular target: Gal(b1-2)Gal
# Outline: as §1
# Gal(b1-3)Gal = molecular target: Gal(b1-3)Gal
# Outline: as §1
# Gal(b1-3)Gal(b1-4)GlcNAc = molecular target: Gal(b1-3)Gal(b1-4)GlcNAc
# Outline: as §1
# Gal(b1-3)GalNAc = molecular target: Gal(b1-3)GalNAc
# Outline: as §1
# [23] = molecular target: Gal(b1-3)GalNAc(a1-3)[Fuc(a1-2)]Gal(b1-4)Glc
# Outline: as §1
# [24] = molecular target: Gal(b1-3)GalNAc(a1-3)[Fuc(a1-2)]Gal(b1-4)GlcNAc
# Outline: as §1
# Gal(b1-3)GalNAc(b1-3)Gal = molecular target: Gal(b1-3)GalNAc(b1-3)Gal
# Outline: as §1
# [25] = molecular target: Gal(b1-3)GalNAc(b1-3)Gal(a1-4)Gal(b1-4)Glc
# Outline: as §1
# [26] = molecular target: Gal(b1-3)GalNAc(b1-4)Gal(b1-4)Glc
# Outline: as §1
# [27] = molecular target: Gal(b1-3)GalNAc(b1-4)[Neu5Ac(a2-3)]Gal(b1-4)Glc
# Outline: as §1
# Gal(b1-3)GlcNAc = molecular target: Gal(b1-3)GlcNAc
# Outline: as §1
binder,measurement,setting,value
"BDCA-2 (Homo sapiens), Q8WTT0 (protein) MVPEEEPQDREKGLWWFQLKVWSMAVVSILLLSVCFTVSSVVPHNFMYSKTVKRLSKLREYQQYHPSLTCVMEGKDIEDWSCCPTPWTSFQSSCYFISTGMQSWTKSQKNCSVMGADLVVINTREEQDFIIQNLKRNSSYFLGLSDPGGRRHWQWVDQTPYNENVTFWHSGEPNNLDERCAIINFRSSEEWGWNDIHCHVPQKSICKMKKIYI",glycan array binding signal (z-score),[1],-0.18
same,glycan array binding signal (z-score),[2],-0.162
same,glycan array binding signal (z-score),[3],-0.192
same,glycan array binding signal (z-score),[4],-0.126
same,glycan array binding signal (z-score),[5],-0.165
same,glycan array binding signal (z-score),[6],-0.043
same,glycan array binding signal (z-score),[7],-0.173
same,glycan array binding signal (z-score),Fuc(a1-4)GlcNAc,-0.153
same,glycan array binding signal (z-score),Fuc(b1-3)GlcNAc,-0.269
same,glycan array binding signal (z-score),Gal(a1-2)Gal,-0.029
same,glycan array binding signal (z-score),Gal(a1-3)Gal,-0.284
same,glycan array binding signal (z-score),Gal(a1-3)Gal(b1-3)GlcNAc,0.071
same,glycan array binding signal (z-score),[8],-0.093
same,glycan array binding signal (z-score),[9],-0.119
same,glycan array binding signal (z-score),[10],-0.138
same,glycan array binding signal (z-score),[11],-0.16
same,glycan array binding signal (z-score),[12],-0.071
same,glycan array binding signal (z-score),Gal(a1-3)Gal(b1-4)Glc,-0.229
same,glycan array binding signal (z-score),Gal(a1-3)Gal(b1-4)GlcNAc,-0.137
same,glycan array binding signal (z-score),[13],-0.185
same,glycan array binding signal (z-score),[14],-0.116
same,glycan array binding signal (z-score),[15],-0.176
same,glycan array binding signal (z-score),[16],-0.161
same,glycan array binding signal (z-score),[17],-0.131
same,glycan array binding signal (z-score),[18],-0.069
same,glycan array binding signal (z-score),Gal(a1-3)GalNAc,-0.238
same,glycan array binding signal (z-score),[19],0.032
same,glycan array binding signal (z-score),[20],-0.131
same,glycan array binding signal (z-score),Gal(a1-4)Gal(b1-4)Glc,-0.083
same,glycan array binding signal (z-score),Gal(a1-4)Gal(b1-4)GlcNAc,-0.198
same,glycan array binding signal (z-score),[21],8.11
same,glycan array binding signal (z-score),[22],-0.174
same,glycan array binding signal (z-score),Gal(a1-4)GlcNAc,-0.16
same,glycan array binding signal (z-score),Gal(a1-6)Glc,0.015
same,glycan array binding signal (z-score),Gal(b1-2)Gal,-0.171
same,glycan array binding signal (z-score),Gal(b1-3)Gal,-0.274
same,glycan array binding signal (z-score),Gal(b1-3)Gal(b1-4)GlcNAc,-0.171
same,glycan array binding signal (z-score),Gal(b1-3)GalNAc,-0.17
same,glycan array binding signal (z-score),[23],-0.174
same,glycan array binding signal (z-score),[24],-0.185
same,glycan array binding signal (z-score),Gal(b1-3)GalNAc(b1-3)Gal,-0.172
same,glycan array binding signal (z-score),[25],-0.101
same,glycan array binding signal (z-score),[26],-0.114
same,glycan array binding signal (z-score),[27],-0.215
same,glycan array binding signal (z-score),Gal(b1-3)GlcNAc,-0.182
